{"source": "the supplement of paper PMC10338343", "note": "± gives the standard deviation. The entries are a selection whose mix differs from that of the whole data set.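 Note: 1 nM active piRISC with 0.1 nM target library at 33 °C single turnover.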"}
{"test_system": "MIWI (PIWIL1) piRISC loaded with piRNA #1 (30 nt)", "experiment": "pre-steady-state target cleavage rate (min^-1); MIWI and MILI are mouse PIWI proteins and EfPiwi is from a freshwater sponge; tags in brackets are library labels; higher = faster piRNA-guided slicing of the target", "settings": "guide: piRNA #1 5'p-UGAGGUAGUAGGUUGUAUAGUAUCCAGAGG; auxiliary factor: 500 nM mouse GTSF1", "outline": "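In this Cleave-'n-Seq assay, uncleaved targets were sequenced and normalised to depth and to weakly complementary targets. They came from a transcribed, DNA-blocked target RNA library […] mixed with 1 nM active affinity-purified piRISC carrying one synthetic guide, with or without 500 nM GTSF1 partner protein, in HEPES–potassium acetate buffer at 33 °C for 0–8 or 0–960 min. After three trials were pooled and k3 was capped at 0.0001 min^-1, the pre-steady-state cleavage rate was obtained from a burst-and-steady-state fit.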"}
{"sequence": "GGAGACCUAUCUAUACAACCUAGUACGUCA", "pre-steady-state target cleavage rate": "0.138 ± 0.026"}
{"sequence": "GGUCUGGAUACUAUACAACCAACUAGCUCA", "pre-steady-state target cleavage rate": "0.017 ± 0.0042"}
{"sequence": "GGAGAGGAAACUAUACAACCUACUUCCUCA", "pre-steady-state target cleavage rate": "0.294 ± 0.15"}
{"sequence": "GGAGACCUAUGAUAUCAAGCUACAACCUCA", "pre-steady-state target cleavage rate": "< 0.0001"}
{"sequence": "GGAGACCUAAGUAUACAACCUACUACCUCA", "pre-steady-state target cleavage rate": "0.214 ± 0.033"}
{"sequence": "GCUCUGGAUACUAUACAUGGUACUACCUCA", "pre-steady-state target cleavage rate": "0.044 ± 0.0084"}
{"sequence": "GGAGACCUAUGAUAUCUUGCUACUACCUCA", "pre-steady-state target cleavage rate": "< 0.0001"}
{"sequence": "GGAGACCAUACUAUACAACCUACAACCUGA", "pre-steady-state target cleavage rate": "0.262 ± 0.047"}
{"sequence": "GCUCUGGAUACUAUACAACCUACUUACCUCA", "pre-steady-state target cleavage rate": "2.1 ± 0.13"}
{"sequence": "GGUCUGGAUACUAUAGCAACCUACUACCUCA", "pre-steady-state target cleavage rate": "1.13 ± 0.12"}
{"sequence": "CCUCUGGAUACUAUACUACCUACAACCUCA", "pre-steady-state target cleavage rate": "1.08 ± 0.098"}
{"sequence": "GGAGACCAAACUAUACAACGUACUACCUCA", "pre-steady-state target cleavage rate": "0.253 ± 0.034"}
{"sequence": "GGAGACGAUAGUAUAGAACCUACUACCUCA", "pre-steady-state target cleavage rate": "1.06 ± 0.078"}
{"sequence": "GGUCUGGAUACUUAUACAACCUACUACCUCA", "pre-steady-state target cleavage rate": "1.55 ± 0.11"}
{"sequence": "GGAGACCUAUCAAUACAACCUACUACGUCA", "pre-steady-state target cleavage rate": "0.0093 ± 0.004"}
{"sequence": "GGAGAGGAUACUUUACAACCUACUACCACA", "pre-steady-state target cleavage rate": "0.579 ± 0.051"}
{"sequence": "GCUCUGGAUACAAUACAACCAACUACCUCA", "pre-steady-state target cleavage rate": "0.147 ± 0.019"}
{"sequence": "CCUCUGGAUACUAUACAACCUACUACCGCA", "pre-steady-state target cleavage rate": "1.68 ± 0.11"}
{"sequence": "GGAGACGAUACUAUACAACCUACUAUCUCA", "pre-steady-state target cleavage rate": "1.51 ± 0.11"}
{"sequence": "GGACUGGAUACUAAACAACGUACUACCUCA", "pre-steady-state target cleavage rate": "0.846 ± 0.075"}
{"sequence": "GGACUGGAUACUCAUACAACCUACUACCUCA", "pre-steady-state target cleavage rate": "1.2 ± 0.096"}
{"sequence": "GCUCUGGAUACUAUAACAACCUACUACCUCA", "pre-steady-state target cleavage rate": "1.92 ± 0.14"}
{"sequence": "CCUCUGGAUACUAUACAACCUUCAACCUCA", "pre-steady-state target cleavage rate": "0.308 ± 0.028"}
{"sequence": "GGAGUGGAUACUAUAGAACGUACUACCUCA", "pre-steady-state target cleavage rate": "0.371 ± 0.037"}
{"sequence": "GGAGAGUAUACUAUACAACCUACUACCUCA", "pre-steady-state target cleavage rate": "1.86 ± 0.13"}
{"sequence": "GGAGACCUAUCUAUUCAACCUACUACCACA", "pre-steady-state target cleavage rate": "0.138 ± 0.022"}
{"sequence": "GCUCUGGAUACUAAACAACCUAGUACCUCA", "pre-steady-state target cleavage rate": "0.375 ± 0.06"}
{"sequence": "GCUCUGGAUACUUUACAACCUACUACCUCA", "pre-steady-state target cleavage rate": "1.87 ± 0.11"}
{"sequence": "GGUCUGGAUACUAUACAACCUACUACGUCA", "pre-steady-state target cleavage rate": "0.654 ± 0.062"}
{"sequence": "GGAGACCAAACUUUACAACCUACUACCUCA", "pre-steady-state target cleavage rate": "0.403 ± 0.082"}
{"sequence": "CCUCUGGAUUCUAUACAACCUACAACCUCA", "pre-steady-state target cleavage rate": "0.702 ± 0.041"}
{"sequence": "GGAGACCUUACUAUAGUUCCUACUACCUCA", "pre-steady-state target cleavage rate": "0.00439 ± 0.002"}
{"sequence": "GGAGACCUUACUGUACAACCUACUACCUCA", "pre-steady-state target cleavage rate": "0.655 ± 0.077"}
{"sequence": "GGACUGCAUACUAUACUACCUACUACCUCA", "pre-steady-state target cleavage rate": "1.05 ± 0.12"}
{"sequence": "CCUCUGCAUACUAUACAACGUACUACCUCA", "pre-steady-state target cleavage rate": "1.43 ± 0.086"}
{"sequence": "GGAGAGGAUACUAUACAACCUACUAGCUCA", "pre-steady-state target cleavage rate": "0.303 ± 0.038"}
{"sequence": "GGACUGGAUACUAUAUCAACCUACUACCUCA", "pre-steady-state target cleavage rate": "0.435 ± 0.1"}
{"sequence": "GCUCUGGAUACUAUACAACCUAGUACCUGA", "pre-steady-state target cleavage rate": "0.104 ± 0.02"}
{"sequence": "GGAGUGGAUACUAUACUACCUACUAGCUCA", "pre-steady-state target cleavage rate": "0.305 ± 0.041"}
{"sequence": "GCUCUGGAUACUAUACAACCUACUACCAGA", "pre-steady-state target cleavage rate": "0.653 ± 0.065"}
